B1: OR4K15 (parent)
chain: GUUAACGGUCAUAGGCCAUGGAAACUAGGAGCACCAUUUCGCUGCCAGUGAAGAAAUGAACAAAGAAAAUCUGGGCCAGGCAGGCAUCAAAAGAAAUAGUCUUGCGCUCAACCAGAAAGUCUGUAAUCAUUUUAAGGGUA

Read counts are not given, so values of variants with three or more changes are uncertain.

The source of these data is the RNAGym collection of RNA variant scans (doi:10.7554/elife.90254).

The variants in the series derive from B1. Kind of series: self-cleavage, relative activity (ratio to wild type); higher = more cleavage; in vitro, sequencing; the parent is a self-cleaving ribozyme.
Turning to A54G A89G A92G, the self-cleavage came out at 1.28.
With A56G A86U U108A, the self-cleavage is 0.02.
As for A55G A91G A95G A118G, the self-cleavage worked out at 1.6.
Consider A54G A59G U72A A90G, for which the self-cleavage is 0.47.
Consider A55G A56G U72C A111G U133C, for which the self-cleavage is 0.03.
A55G C88U A110G U120A U122C: the self-cleavage amounted to 0.09.
For the variant A54G U97C U133A, the self-cleavage amounted to 1.82.
For the variant A54G U103C U127C, the self-cleavage worked out at 0.32.
In the case of A56G A91G A114G, the self-cleavage was 0.31.
With A55U U72A A94G, the self-cleavage worked out at 0.24.
On to A56G U87C A118G U131C, for which the self-cleavage worked out at 0.34.
As for G53A A59G U100G, the self-cleavage turned out to be 1.73.
Regarding A55G A89G A90G A98G U122G A125G, the self-cleavage came out at 0.18.
A54G A60G A89U A117G: the self-cleavage turned out to be 1.54.
Then A54G A69G A95G, with 1.2; and A55U A91G U131C U132A, with 1.01.
Take A55G U57G U122C: the self-cleavage worked out at 0.87.
As for A54U U97A U122A, the self-cleavage worked out at 1.55.
In the case of A54G A59G A66G U102C U108C, the self-cleavage is 0.02.
On to A54G A62G C76U A95G A135G U139A, for which the self-cleavage turned out to be 0.03.
For the variant A55G A89G A96G A111G, the self-cleavage worked out at 0.
For the variant A54G A64G A68G U131C, the self-cleavage is 1.1.
Consider A56G A89G A90G A118G, for which the self-cleavage was 0.8.
Then A55U A63G A67G U103C, with 0.98; and A54U U100G U131C, with 2.68; and A55G U57C A116C, with 0.03.
In the case of A54G U102A C105A, the self-cleavage was 0.02.
Take A54G A55G A64G: the self-cleavage was 1.74.
With A56U A66U U124C, the self-cleavage was determined as 0.36.
As for A54G C76U A140G, the self-cleavage is 0.13.
Take A55C A95G C101U: the self-cleavage came out at 1.31.
Take A56G A68U G99U U120G: the self-cleavage worked out at 0.09.
Then A56G A64G A86U A94U A96G U100C A114U, with 0.16.
Take A54U A59G A69G A117U: the self-cleavage was 0.31.
As to G53U A89G A117U, the self-cleavage came to 1.62.
Then A55U A82G A92G, with 0.55; and A54G A94G A114U A118G A134U, with 0.02.
On to A54G A69G A91G A114G, for which the self-cleavage is 0.33.
In the case of A54G A62G A82U A96G, the self-cleavage came out at 0.32.
On to A54G A55G A66G, for which the self-cleavage was found to be 0.54.
Then A54G A111G G137U, with 0.02; and A55G A89G U102C, with 0.53.
As for A54U A64G U108C, the self-cleavage came to 0.04.
For A56G A67G A68G U124C U139A, the self-cleavage is 1.16.
On to A54G A86U A95G U122A A140G, for which the self-cleavage is 1.82.
Take A56G A89G A91G: the self-cleavage was 1.51.
Turning to A54G A63G U130C, the self-cleavage came out at 0.84.
In the case of A55G A129G U132C, the self-cleavage is 1.67.
For the variant A54G U72C A126G, the self-cleavage turned out to be 0.19.
Turning to A55G A67G U108C, the self-cleavage is 0.01.
A56G A118U G138A: the self-cleavage came to 0.52.
As for A54G A116G U130C, the self-cleavage turned out to be 0.33.
Then A56G A68G A86G A91G U124A, with 0.06; and A54G A98G A126U, with 0.4.
With A54G A56G A90G U130C, the self-cleavage was determined as 0.43.
A56G A68G A69U U102C G106C A126G A135G: the self-cleavage came to 0.
On to A55G A68U A95G, for which the self-cleavage amounted to 2.07.
A54U A60G A89U: the self-cleavage came out at 1.76.
On to A55G A95G A135U, for which the self-cleavage stood at 1.83.
With A54U A67G U127C, the self-cleavage came to 0.15.
In the case of A56G A116G U133C, the self-cleavage turned out to be 0.95.
Regarding A55G U57C U87A U130C A135G, the self-cleavage was 1.56.
For A55G A86G A140U, the self-cleavage was 1.28.
For the variant A56G A82C A117G, the self-cleavage was 0.15.
Then A56G A69U U108A, with 0.04; and A55G A56G A59G, with 1.41.
As to A54U A55G A116U, the self-cleavage amounted to 0.46.
Then A56G A95G U139C, with 1.43.
Take A54G A60G U103A: the self-cleavage was determined as 0.14.
Then A54G A67G U130C, with 1.16; and A55G U72C U124C, with 0.16.
In the case of A55G A66U A86G A125G, the self-cleavage is 0.15.
Then A55G A86G A95G, with 1.84; and A56G U70C A86G A95G U131A, with 0.81.
Regarding A56G A94G A117U, the self-cleavage worked out at 0.5.
On to A56G G75A U97C, for which the self-cleavage amounted to 0.15.
As to A54C A56G A60G, the self-cleavage turned out to be 1.13.
A54G A59G A67U: the self-cleavage is 0.97.
Then A54G A90G A114U U122G, with 0.05; and A56G A95C A117G, with 1.45; and A56G A60G U70C A78C A89G A95G U120C, with 0.02.
Consider A55U A95G U133C, for which the self-cleavage is 2.87.
On to A55C U108G U122A, for which the self-cleavage was determined as 0.08.
For A54G A78G A134G, the self-cleavage was found to be 0.24.
As for A56G A69G A110G U132C, the self-cleavage came to 0.26.
Then G53A C109U A111U, with 0.07; and A56G U70C U103C U108C, with 0.02; and A54G A62U U100C, with 2.16.
Turning to A54G U57C G75A U122A, the self-cleavage was determined as 0.1.
Consider A56G A89U U100A A134G, for which the self-cleavage was determined as 0.93.
With A55G C105U A125G A126G, the self-cleavage was determined as 0.01.
For A55G A60G A90U A94G, the self-cleavage turned out to be 1.05.
A56G A60G A63G U122A: the self-cleavage amounted to 0.32.
Consider A56G U122C A129U U132G G136U, for which the self-cleavage was found to be 1.18.
As to A54G A68G U70A, the self-cleavage is 0.61.
On to A56C A63G G115A, for which the self-cleavage is 0.09.
Consider A55G A92G U100C, for which the self-cleavage amounted to 2.37.
A54G A69G A114U U122C U139A: the self-cleavage amounted to 0.03.
A55G A90G A116C: the self-cleavage worked out at 0.02.
Then A55G A118G U120A U132C, with 0.78; and A56G A118G U124A U131A, with 0.18.
For the variant A56G A67G A90U, the self-cleavage stood at 1.81.
Then A54G A64U U127A, with 1.94; and A56C A82G A89C A90G, with 0.36.
In the case of A56G A78U A140G, the self-cleavage came out at 0.39.
Turning to G53U C81U A90G A110G, the self-cleavage stood at 0.02.
As for A54C A90G A111G, the self-cleavage was 0.02.
As to A56G A64G A95G U124C A135U, the self-cleavage was determined as 1.67.
Take A55G A98U U131C: the self-cleavage turned out to be 1.93.
As to A54U U72C A90G U122G, the self-cleavage is 0.35.
In the case of U57A A60G A63G A96G G137A, the self-cleavage was determined as 0.76.
As for A54G A55G A67G, the self-cleavage stood at 0.91.
As for A55G A59G U97C A116G U130C, the self-cleavage was 0.27.
A54G U122C U131C: the self-cleavage came out at 1.25.
Turning to A55G A82U A86U A110U, the self-cleavage was determined as 0.45.
As to A55G A94G U120A, the self-cleavage stood at 1.38.
Consider A54G A63G U70C U87C, for which the self-cleavage is 0.92.
Regarding A56G A60G U87C A94G A96G U130C, the self-cleavage was determined as 1.8.
With A55G A86C A116U, the self-cleavage was 0.1.
With A56G A96G A111G, the self-cleavage worked out at 0.04.
As to A56G A63G A94G, the self-cleavage came out at 1.1.
On to A55G U102C U122C, for which the self-cleavage came out at 1.65.
Turning to A54G A68G U124C, the self-cleavage is 1.08.
Consider A56G A78G U130A, for which the self-cleavage came to 0.08.
For A54U U120C A140G, the self-cleavage was determined as 0.82.
On to A55U A126G U127C, for which the self-cleavage came out at 0.67.
For the variant A54G A90G U131C, the self-cleavage is 1.66.
Take A54G A60G A110G U130C: the self-cleavage was found to be 0.1.
Turning to A55G A56G U57G A94C, the self-cleavage was 0.22.
Turning to A56G G84A A98U, the self-cleavage is 2.27.
As to A55G U132C A134G, the self-cleavage came out at 1.12.
A56G A78G A86G A91G A92G A110G A117G: the self-cleavage is 0.06.
Then A56G A82C A111G A118G, with 0.01; and A56G A92G A95G A129C, with 0.88.
In the case of A56G A94G A118G, the self-cleavage was found to be 1.17.
Then A54G C109U U124C, with 0.23.
For the variant A55G A92G A118U, the self-cleavage amounted to 0.33.
In the case of A54G A64U U103C, the self-cleavage worked out at 0.57.
Then A55G U131C A140G, with 1.6; and A54G A96U U102C, with 1.86.
As for A54G C61U A68G G75C U102C, the self-cleavage was 0.14.
A56G A78G U132C: the self-cleavage was 0.21.
On to A54G A64G U103C, for which the self-cleavage came out at 0.74.
On to A56G A60G U72A U87C A110G, for which the self-cleavage was found to be 0.05.
Then A56G A69U A116G, with 0.73.
Consider A54G A82U A134G, for which the self-cleavage was determined as 0.22.
For A56G A66G A67G A92G A111G, the self-cleavage was 0.05.
Take A54G A90G U102C A111G: the self-cleavage is 0.
With A56G U100C G106C U108C, the self-cleavage came out at 0.01.
Turning to A54U A68G A86C C113A, the self-cleavage came to 0.02.
As for A55G A90G U130A, the self-cleavage was determined as 0.06.
For the variant A56G A94G U103C A140G, the self-cleavage stood at 1.35.
As to A56G U100C A125G, the self-cleavage worked out at 1.26.
With A56U A60U U87A A90G U108A, the self-cleavage is 0.01.
Then A54G A60U U102C A114G U124A, with 0.49; and A55G A66G U72C U103C A114G, with 1.17.
Regarding A54G A67G U72C U87A A110U, the self-cleavage is 0.31.
Take A56G A118G A135G: the self-cleavage came out at 1.09.
Then A56G A68G U70A U130A, with 0.63; and A54G U70C C81U A82U, with 0.24; and A55G A64G A91G, with 0.89.
Take A56G A111G A114G A117G A140G: the self-cleavage is 0.
In the case of A56G U102C A111G U130C, the self-cleavage came out at 0.01.
Regarding A55G A60G A86G, the self-cleavage is 1.29.
For A56C A60G U87C A116G A135G, the self-cleavage came out at 0.13.
As for A55G A69G A78G A82U, the self-cleavage was determined as 0.1.
As to A56G A78G A90G, the self-cleavage was determined as 0.55.
